Variants at the floor of the assay are shown more often than the library holds them.
B1: tRNA (parent)
chain: CUCUCGGUAGCCAAGUUGGUUUAAGGCGCAAGACUUUAAUUUAUCACUACGAAAUCUUGAGAUCGGGCGUUCGACUCGCCCCCGGGAGAUUUUUUCCUCGAGCAA

Variants of: B1
Assay: nonsense suppression (GFP-seq) (ratio to wild type); higher = more function; SUP4oc tRNA, yeast GFP reporter sort-seq
Procedure, shortened: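 To measure nonsense suppression, tRNA variants from a library carrying ~3% random mutations were integrated into the yeast genome alongside RFP and a GFP ochre reporter under galactose control. Growth took place in raffinose/galactose medium supplemented with 80 mg/L adenine, followed by sorting into GFP/RFP bins and Illumina sequencing of each bin (phred ≥30). For each variant with ≥100 reads and ≥30 cells, the bin median GFP/RFP values were weighted by its estimated cell share per bin and referenced to the unmutated parent tRNA.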

Row | Variant | nonsense suppression
1 | CUCUCGGUAGCCAAGUAGGUUUAGGGCGCAUGACUUUAAUUUAUCACUACGAAAUCUUGAGAUCGGCCGUUCGACUCGCCCCCGGGCGAUUUUUUCCUCGAGCAA [U17A A24G A31U G67C A87C] | ≤ 0.026
2 | CUCUCGGUAGCCAAGGAGGUUUAAGGCGCAAGACUUUAAUUUAUCACUACGAAAUCUUGAGAUCGGGCGGUCGACUCGCCCCCGGGAGAUUUUUUCCUCGAGCAA [U16G U17A U70G] | ≤ 0.026
3 | CUCUCGGUAGCCAAGGUGGUUUAAGGCGCAAGACUUUAAUUUAUCACUACGAAAUCUUGAGAUCGGGCGUUCGACUCGCCCCCGGCAGAUUUUUUCCUCGAGCAA [U16G G86C] | ≤ 0.026
4 | CUCUCGGUAGCCAAGUAGGUUUAAGGCGCAAGACUUUAAUUUAUCACUACGAAAUCUUGAGAUCGGGCGUUCGACUCGGCCCCGGGAGAUUUUUUCCUCGAGCAA [U17A C79G] | ≤ 0.026
5 | CUCUCGGUAGCCAAGUAGGUUUACGGCGCAUGACUUUAAUUUAUCACUACGAAAUCUUGAGAUCGGGCGUUCGACUCGCCCCCGGGAGAUUUUUUCCUCGAGCAA [U17A A24C A31U] | ≤ 0.026
6 | CUCUCGGUAGCCAAGUAGGUUUAAGGCGCAAGACUUUAAUUUAUCACUACGAAAUCUUGAGAUCGGGCGUUCGACUCGCGCCCGGGAGUUUUUUUCCUCGAGCAA [U17A C80G A89U] | ≤ 0.026
7 | CUCUCGGUAGCCAAGGCGGUUUAAGGCGCAAGACUUUAAUUUAUCACUACGAAAUCUUGAGAUCGGUCGUUCGACUCGCCCCCGGGAGAUUUUUUCCUCGAGCAA [U16G U17C G67U] | ≤ 0.026
8 | CUCUCGGUAGCCAAGGUGGUUUAAGGCGCAAGACUUUAAUUUAUCACUACGAAAUCUUGAGAUCGGGCGUUCGACUCGCCCCCGGGAUAUUUUUUCCUCGAGCAA [U16G G88U] | ≤ 0.026
9 | CUCUCGGUAGCCAAGUAGGUUUCACGCGCAAGACUUUAAUUUAUCACUACGAAAUCUGGAGAUCGGGCGUUCGACUCGCCCCCGGGAGAUUUUUUCCUCGAGCAA [U17A A23C G25C U58G] | ≤ 0.026
10 | CUCUCGGUAGCCAAGUAGGUUUAAGGCGCACGACUUUAAUUUAUCACUACGAAAUCUUUAGAUCGGGCGUUCGACUCGCCCCCGUGAGAUUUUUUCCUCGAGCAA [U17A A31C G59U G85U] | ≤ 0.026
11 | CUCUCGGUAGCCAAGUAGGUUUAAGGCGCAAGACUUUAAUUUAUCACUACGAAAUCUUGAGAUCGGGCGUUCGACUCGCCCCCGGGAGUUUUUUUCCUCGAGCAA [U17A A89U] | ≤ 0.026
12 | CUCUCGGUAGCCAAGUAGGUUUAAGGCGCAAGACUUUAAUUUAUCACUACGAAAUCUUGAGAUCGGGCGUUCGACUCGCCCCCGGGAGCUUUUUUCCUCGAGCAA [U17A A89C] | ≤ 0.026
13 | CUCUCGGUAGCCAAGGUGGUUUAAGGCGCAAUACUUUAAUUUAUCACUACGAAACCUUGAGAUCGGGCGUUCGACUCGCCCCCGGGAGAUUUUUUCCUCGAGCAA [U16G G32U U55C] | ≤ 0.026
14 | CUCUCGGUAGCCAAGUAGGUUUACGGCGCAAGACUUUAAUUUAUCACUACGAAAUCUGGAGAUCGGGCCUUCGACUCGCCCCCGGGAGAUUUUUUCCUCGAGCAA [U17A A24C U58G G69C] | ≤ 0.026
15 | CUCUCGGUAGCCAAGGUGGUUUAAGGCGCAAGACUUUAAUUUAUCACUACGAAAUCUUGAGAUCGGGCGUGCGACUCUCCCCCGGGAGAUUUUUUCCUCGAGCAA [U16G U71G G78U] | ≤ 0.026
16 | CUCUCGGUAGCCAAGGUGGUAUAAGGCGCAAGACUUUAAUUUAUCACUACGAAAUCUUGAGAUCGGGCGUUCGGCUCGCUCCCGGGAGAUUUUUUCCUCGAGCAA [U16G U21A A74G C80U] | ≤ 0.026
17 | CUCUCGGUAGCCAAGGUGGUCUAAGGCGCAAGACUUUAAUUUAUCACUACGAAAUCUUGAGAUCGGGCGUUCGACUCGCCCCCAGGAGAUUUUUUCCUCGAGCAA [U16G U21C G84A] | ≤ 0.026
18 | CUCUCGGUAGCCAAGUAGGUUUGAGGCGCAAGACUUUAAUUUAUCACUACGAAAUCUUGAGAUCGGGGGUUCGACUCGCCCCCGGGAGAUUUUUUCCUCGAGCAA [U17A A23G C68G] | ≤ 0.026
19 | CUCUCGGUAGCCAAGUAGGUUUAAGGCGCAAGACUUUAAUUUAUCACUACGAAAUCUUGAGAUCGGGCGUUCGGCCUCGCCCCGGGAGGUUUUUUCCUCGAGCAA [U17A A74G U76C C77U G78C C79G A89G] | ≤ 0.026
20 | CUCUCGGUAGCCAAGUAGGUUUAAGGCGCAAGACUUUAAUUUAUCACUACGAACUCUAGAGAUCGGGCGUUCGACUCGCCCCCGGGAGAUUUUUUCCUCGAGCAA [U17A A54C U58A] | ≤ 0.026
21 | CUCUCGGUAGCCAAGGUGGUUUAAGGCGCAAGACUUUAAUUUAUCACUACGAAAUCAUGAGAUUGUGCAUUCGACUCGCCCCCGGGAGAUUUUUUCCUCGAGCAA [U16G U57A C64U G66U G69A] | ≤ 0.026
22 | CUCUCGGUAGCCAAGGUGGUAUAAGGCGCAAGACGUUAAUUUAUCACUACGAAAUCUUGAGAUCGGGCGUUCGACUCGCCCCCGGGAGAUUUUUUCCUCGAGCAA [U16G U21A U35G] | ≤ 0.026
23 | CUCUCGGUAGCCAAGUAGGUUUAGGGCGCAAGACCUUAAUUUAUCACUACGAAAUCUUGAGAUCGGGCGUUCGACUCGCCCCCGGGAGAUUUUUUCCUCGAGCAA [U17A A24G U35C] | ≤ 0.026
24 | CUCUCGGUAGCCAAGUAGGUUUAAGGCGCAAGAAUUUAAUUUAUCACUACGAAAUCUUGAGAUCGGGCGCUCGACUCGCCCCCGGGAGAUUUUUUCCUCGAGCAA [U17A C34A U70C] | ≤ 0.026
25 | CUCUCGGUAGCCAAGUAGGUUUUAGGCGAAAGACUUUAAUUUAUCACUACGAAAUCUUGAGAUCGGGCGUUCGACUCGCCCCCGGGAGAUUUUUUCCUCGAGCAA [U17A A23U C29A] | ≤ 0.026
26 | CUCUCGGUAGCCAAGUAGGUUUAGGGCGCAAGACUUUAAUUUAUCACUACGAAAUCUUGAGAUCGGGCGUUCGACUCGCCCCCGGGAGAUUUUUUCCUCGAGCAA [U17A A24G] | 0.0262
27 | CUCUCGGUAGCCAAGUAGGUUUACGGCGCAAGACUUUAAUUUAUCACUACGAAAUCUUGAGAUCGGGCGUUCGACUCGCCCCCGGGAGAUUUUUUCCUCGAGCAA [U17A A24C] | 0.902
